Measurements: publication PMC3827131
These are yes or no findings as the source states them, for the method shown. For some of these results: Binding seen in cells or lysates may run through a third protein. Some results given as binding are weak or reduced against the parent protein; the word gives no strength. For some of these results: Sequences can lack the tags named with a protein.

Amino acid sequences for entries named in this document (tags omitted). A change or cut given only in a name is not applied to a line headed by its entry.
UniProt Q9YGP5: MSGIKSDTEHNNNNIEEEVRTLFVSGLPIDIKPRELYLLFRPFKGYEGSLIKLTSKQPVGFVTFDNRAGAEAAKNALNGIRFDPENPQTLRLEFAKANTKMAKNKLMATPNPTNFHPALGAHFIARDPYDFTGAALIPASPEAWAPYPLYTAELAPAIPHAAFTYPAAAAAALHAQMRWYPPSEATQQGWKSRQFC

Legend:
[1] = target: T1, Rbm24b two-hybrid clone, residues 93-219 (Xenopus laevis) (UniProt Q9I8B3); test: two-hybrid; reverse test: selected inserts in the LexA bait plasmid pBTM116 against the Hermes ORF in the pVP16 prey vector, yeast strain L40; selective media and beta-galactosidase reporter assays
T1 sequence: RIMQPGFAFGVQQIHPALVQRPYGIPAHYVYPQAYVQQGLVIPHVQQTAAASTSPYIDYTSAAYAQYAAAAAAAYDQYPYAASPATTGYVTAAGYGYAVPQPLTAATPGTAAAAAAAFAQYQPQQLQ

[2] = target: Hermes b (Hermes ORF, two-hybrid fusion) (Xenopus laevis) (UniProt Q9YGP5); test: two-hybrid; screen of a randomly primed X. laevis oocyte cDNA library in pVP16 (prey) with LexA-Hermes b (pBTM116) as bait, yeast strain L40; selection on medium lacking Leu, Trp, His with 15 mM 3-aminotriazole, beta-galactosidase filter assay
[3] = target: VN-Rbm24b / VC-Rbm24b (BiFC fusion of Rbm24b) (Xenopus laevis) (UniProt Q9I8B3); test: split reporter; BiFC with Venus fragments VN and VC fused to the N-terminus of the ORFs; mRNAs injected into stage VI Xenopus oocytes, 48 h in OCM; confocal microscopy of the vegetal cortex at constant gain, and of hand-sectioned fixed oocytes
[4] = target: VN-POC1B / VC-POC1B (BiFC fusion of Xenopus Poc1B) (Xenopus) (UniProt Q4V7Z1); test: as above

Molecule: Hermes b (Hermes ORF, two-hybrid fusion) (from UniProt Q9YGP5 1-196)
- binding [1]: binds

Molecule: Hermes b, two-hybrid clone (residues 1-111) (from UniProt Q9YGP5 1-111) (domain or fragment)
- binding [2]: binds

Molecule: Hermes b, two-hybrid clone (residues 7-115) (from UniProt Q9YGP5 7-115) (domain or fragment)
- binding [2]: binds

Molecule: Hermes b, two-hybrid clone (residues 7-148) (from UniProt Q9YGP5 7-148) (domain or fragment)
- binding [2]: binds

B1: VN-Rbm24b / VC-Rbm24b (BiFC fusion of Rbm24b) (protein, UniProt Q9I8B3 1-224)
chain: MHTTQKDTTYTKIFVGGLPYHTTDSSLRKYFEVFGDIEEAVVITDRQTGKSRGYGFVTMADRAAAERACKDPNPIIDGRKANVNLAYLGAKPRIMQPGFAFGVQQIHPALVQRPYGIPAHYVYPQAYVQQGLVIPHVQQTAAASTSPYIDYTSAAYAQYAAAAAAAYDQYPYAASPATTGYVTAAGYGYAVPQPLTAATPGTAAAAAAAFAQYQPQQLQADRMQ
- binding [3]: binds

B2: Rbm24b two-hybrid clone, residues 93-219 (domain or fragment, UniProt Q9I8B3 93-219)
chain: RIMQPGFAFGVQQIHPALVQRPYGIPAHYVYPQAYVQQGLVIPHVQQTAAASTSPYIDYTSAAYAQYAAAAAAAYDQYPYAASPATTGYVTAAGYGYAVPQPLTAATPGTAAAAAAAFAQYQPQQLQ
- binding [2]: binds

B3: VN-POC1B / VC-POC1B (BiFC fusion of Xenopus Poc1B) (protein, UniProt Q4V7Z1 1-468)
chain: MASALDDPALQRHFKGHKDAVTCVDFSPDSKQLASSSADACVMIWNFKPQSRAYKYPGHKEAVTCVQFSPSGHLVASSSKDRTVRLWAPNIKGESTVLKAHTAVVRCVNFSSDGQTFITASDDKSIKAWNLHRQRFLFSLTQHTNWVRCARFSPDGRLIASCSDDKTVRIWDLTNRLCINTFVDYKGHSNYVDFNQMGTCVASAGADSTVKVWDIRMNKLLQHYQVHNAGVSSLSFHPSGNYLLTASSDGTLKILDLLEGRLIYTLHGHQGPVLSVTFSKSGDQFASGATDAQVLVWKTNFDKYSVKEIVKLQQKRTCPEAPPHLNDIYPRTPHLHSSSGHSIEINPMCEVADTQTFDPPIINVGANLPYCRRTKAVHTLNKHVRNDNYPTPPVAFSYTEGQKEHPLVEEQGVLPPSLSNTLEQIVDQLNVLTQTVSILEHRLTLTEDKLKECLENQQKTSAHASESD
- binding [4]: no binding
